# In PubChem BioAssay AID624417 (National Center for Advancing Translational Sciences (NCATS), 2012):
# In all, about 410,000 compounds went through this assay and about 6,400 (1.6%) were called active. This list was built around the results that the source calls inconclusive (neither active nor inactive); the mix of calls is not that of the screen. Calls come from the whole dose curve; as a rule, active = well fitted inhibition curve with a large enough effect; inconclusive = small, poorly fitted or top-dose-only effect; inactive = no such curve, though single readings can be large or run the other way. Potencies of inconclusive entries are left out as doubtful fits.
# Biological target: Glucagon-like peptide 1 receptor (Homo sapiens) (UniProt P43220)
# Test: qHTS of GLP-1 Receptor Inverse Agonists (Inhibition Mode); note: nearly all actives have a fitted effect of over 55% in size
# Conditions: HEK293 GLP-1R CRE-luciferase, luminescence, 24 h, GLP-1R form is constitutively active; activity change, negative = inhibition: at 38.3 µM (top of the series) unless noted
# In short: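 Readout was luciferase luminescence, measured 12 min after detection reagent at room temperature. Beforehand, GLP-1R reporter HEK293 cells had sat 12 h, then received compounds for 24 hr at 37 deg C.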
# % is set by controls: 0 for no effect and ±100 for the full control effect; potency is the fitted concentration of half-maximal effect; tags give direction and shape of the fitted curve.
# Sequence of UniProt P43220 (P43220 whole entry, looked up): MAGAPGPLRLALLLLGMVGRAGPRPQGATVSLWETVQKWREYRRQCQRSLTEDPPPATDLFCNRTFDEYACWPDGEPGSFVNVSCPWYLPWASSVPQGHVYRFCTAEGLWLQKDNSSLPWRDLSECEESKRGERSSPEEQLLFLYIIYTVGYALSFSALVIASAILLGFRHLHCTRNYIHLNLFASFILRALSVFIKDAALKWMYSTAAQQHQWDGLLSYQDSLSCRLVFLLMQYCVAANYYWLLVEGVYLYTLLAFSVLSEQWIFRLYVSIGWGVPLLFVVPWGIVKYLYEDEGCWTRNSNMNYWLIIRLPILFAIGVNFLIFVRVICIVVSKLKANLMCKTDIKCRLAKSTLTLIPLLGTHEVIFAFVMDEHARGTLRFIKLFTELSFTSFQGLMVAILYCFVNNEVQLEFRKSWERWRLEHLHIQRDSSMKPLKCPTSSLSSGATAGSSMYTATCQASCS
SMILES,Potency,"activity change, negative = inhibition"
CCOC(=O)N1CCc2c(sc(NC(=O)Cc3ccccc3)c2C(=O)c2ccc(OC)cc2)C1,"inconclusive [inhibitor, single point]",
CCOC(=O)N1CCN(CC(=O)Nc2cccc(Br)c2)CC1,,inactive: -0.683%
Cc1ccc2[nH]c(C(=O)N/N=C/c3ccccc3O)c(C)c2c1,"inconclusive [inhibitor, partial curve, poor fit]",
CC(=O)Nc1ccc(S(=O)(=O)Nc2ccc(N3CCCCC3)cc2)cc1,"inconclusive [inhibitor, single point]",
CN(CC(=O)Nc1ccc(Cl)c(C(F)(F)F)c1)C(=O)c1cn2ccccc2n1,"inconclusive [inhibitor, single point]",
Cc1ccc(C(C)C)c(OC(=O)/C=C/c2ccccc2)c1,,inactive: -4.21%
CCOc1ccc(NC(=S)N(CCOC)C(C)c2cccnc2)cc1 (stereo not drawn),,inactive: -1.89%
O=C(Nc1ccc(Br)cc1)N1CCc2ccccc2C1,"inconclusive [inhibitor, partial curve, poor fit]",
CCc1ccc(-c2cc3c(=O)n(CC(=O)NCCCN4CCC(Cc5ccccc5)CC4)nc(C)n3n2)cc1,"inconclusive [inhibitor, single point]",
COc1ccccc1N1CCN(CCCNC(=O)c2nnc(Cc3c(F)cccc3Cl)o2)CC1,,inactive: -26.3%
COc1ccc(/C=N/OCc2ccc(Br)cc2)c(OC)c1,"inconclusive [inhibitor, partial curve, poor fit]",
Nn1c(SCC(=O)Nc2nccs2)nnc1-c1ccccn1,,inactive: 5.3%
c1ccc(Cn2c(CN3CCCC3)nc3ccccc32)cc1,"inconclusive [inhibitor, full curve, poor fit]",
O=C(CCCCn1c(=O)c2ccccc2n(CC(=O)Nc2cccc(F)c2)c1=O)NCc1ccco1,"inconclusive [inhibitor, single point]",
Cc1ccc(NC(=S)N(CCN2CCCCC2)Cc2ccco2)cc1,"inconclusive [inhibitor, partial curve, poor fit]",
Cc1cc(C)c(S(=O)(=O)N2CCN(C(=O)c3cc(=O)[nH]c4ccccc34)CC2)c(C)c1,"inconclusive [inhibitor, single point]",
O=C(CCNS(=O)(=O)c1ccc(OC(F)(F)F)cc1)N1CCN(C/C=C/c2ccccc2)CC1,"inconclusive [inhibitor, single point]",
COc1ccc(Nc2nc(-c3ccncc3)nc3ccccc23)cc1,"inconclusive [inhibitor, full curve, poor fit]",
CCOC(=O)/C(C(N)=NCc1ccco1)=C(/O)c1ccccc1,"inconclusive [inhibitor, partial curve, poor fit]",
COc1ccc(SCC(=O)c2cc(C)c(OC(=S)N(C)C)c(C)c2)cc1,"inconclusive [inhibitor, partial curve, poor fit]",
O=C(NCCO)c1cccc(-c2cnc3cccnn23)c1,,inactive: 17.7%
Cc1cnn(-c2nc(-c3cccs3)cc(C(F)(F)F)n2)c1,"inconclusive [inhibitor, single point]",

SMILES,Potency,"activity change, negative = inhibition"
Cc1cccc(C(=O)Nc2cccc(OCc3cc(=O)n4cc(C)sc4n3)c2)c1,,inactive: -9.51%
Cc1ccc(C(C)C)c(OCC(=O)NCC2(N3CCOCC3)CCCCC2)c1,"inconclusive [inhibitor, partial curve, poor fit]",
NC1=NC2(CCCCC2)N=C(Nc2ccc(F)cc2F)N1,,inactive: 0%
COc1ccc(-c2nc3cnccn3c2NCc2ccccc2)cc1SC1CCCCC1,"inconclusive [inhibitor, single point]",
O=C(NCC(c1cccnc1)N1CCc2ccccc21)c1ccc(F)c(F)c1 (stereo not drawn),"inconclusive [inhibitor, single point]",
O=C(Cc1ccc(Br)cc1)N1CCc2ccccc2C1,"inconclusive [inhibitor, single point]",
CCc1ccccc1NC(=S)Nc1cc(OC)c(NC(=O)C(C)C)cc1OC,,inactive: -3.86%
O=C(COc1ccc(Cl)cc1)N1CCCCCCC1,"inconclusive [inhibitor, single point]",
Cc1sc2nc(CN(C(=O)NC3CCCCC3)C3CCCC3)[nH]c(=O)c2c1C,,inactive: -10.3%
O=C(NCCc1ccccc1)c1cccc(S(=O)(=O)N2CCCCC2)c1,"inconclusive [inhibitor, single point]",
CCNc1nc(NCC)nc(N(C)/N=C/c2ccco2)n1,"inconclusive [inhibitor, single point]",
O=C(CSc1nc2c(sc3ccccc32)c(=O)n1CCCN1CCCC1)NCC1CCCO1 (stereo not drawn),"inconclusive [inhibitor, single point]",
Cc1cn(C)c(CC(=O)N2CCN(c3cccc(C(F)(F)F)c3)CC2)c1C(=O)O,,inactive: -1.5%
CCOC(=O)CCN(c1ccccc1)S(=O)(=O)c1cc(-c2cc(C)no2)ccc1C,"inconclusive [inhibitor, partial curve]",
CC1(C(=O)N/N=C/c2c(F)c(F)c(F)c(F)c2F)CC1(Cl)Cl (stereo not drawn),"inconclusive [inhibitor, single point]",
CCOc1ccccc1-c1noc(CCCC(=O)Nc2cccc(C(F)(F)F)c2)n1,"inconclusive [inhibitor, single point]",
CC(=O)Nc1ccc(NC(=O)c2cc3c(=O)n(Cc4cccnc4)ccc3nc2C)cc1,,inactive: 1.75%
COc1ccc(-c2cc3c(=O)n(CC(=O)NCc4cccnc4)nc(C)n3n2)cc1,,inactive: -0.424%
Cc1cc2nn(-c3ccccc3)nc2cc1NC(=O)c1cccs1,"inconclusive [inhibitor, single point]",
O=C(CCCSCCCC(=O)NN=Cc1ccccc1)NN=Cc1ccccc1,"inconclusive [inhibitor, partial curve, poor fit]",
O/N=C/c1cn(-c2ccccc2)nc1-c1ccccc1,"inconclusive [inhibitor, single point]",
